# According to PubChem BioAssay (Tox21):
# Where “and” joins values, the source holds several entries; their conditions need not be identical. Equal values may be shown once. The shares of active, inactive and inconclusive entries below differ from those in the screen. Where the call is inconclusive, the potency comes from a doubtful curve fit. Calls of active or inactive are those of the source. Unless noted, the call rests on the fitted dose curve; in most records, active means well fitted curve in the direction sought with a large enough effect in the repeat runs; inconclusive means weak or mixed curves; inactive means no such curve, though single readings can be large; an effect the other way counts as inactive or inconclusive.
# Key:
# [1] = qHTS assay to identify small molecule agonists of the retinoic acid receptor (RAR) signaling pathway (AID 1159553); conditions: C3RL4 RARE luciferase reporter, agonist, 6 h; activation: at 73.3 µM (top of the series) unless noted; on activation: on the % scale 0 is the no-effect control and ±100 the full control effect
# Summary of the method: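 Cell line C3RL4, RARE luciferase reporter. Treatment: compounds in DMSO, 6 hr, 37 C, 5% CO2, after overnight plating. Detection: luminescence, 30 min RT after reagent.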
# [2] = target: Nuclear receptor subfamily 1 group I member 3 (Homo sapiens) (UniProt Q14994); test: qHTS assay to identify small molecule agonists of the constitutive androstane receptor (CAR) signaling pathway (AID 1224839); conditions: HepG2 hCAR CYP2B6-luciferase, agonist mode, 24 h; series mostly up to 92.4 µM; further: nearly all actives have a fitted effect of over 15% in size;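 on activation: HepG2 cells stably carrying human CAR and a CYP2B6 luciferase reporter; on the % scale 0 is the no-effect control and ±100 the full control effect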
# Summary of the method: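 HepG2 cells stably co-transfected with hCAR and a CYP2B6-2.2kb luciferase reporter; compounds at 15 concentrations with 0.75 uM PK11195 present. After 24 hr at 37 C, luciferase read by ONE-Glo luminescence.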
# [3] = qHTS assay to identify small molecule agonists of the estrogen related receptor signaling pathway with the pleiotropic PPARgamma coactivator (PGC) from Tox21 10K library (AID 1224842); conditions: PGC/ERR reporter cell line, luciferase ONE-Glo, 18 h; series mostly up to 42.5 µM; further: nearly all actives have a fitted effect of over 15% in size
# Summary of the method: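 Luminescence from One-Glo (30 min, room temperature) measured after PGC/ERR cells had 18 h at 37 C with pinned compound (23 nL in DMSO). Cells had been seeded at 2,000 per well and pre-incubated 6 h.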
# [4] = target: Thyrotropin receptor (Homo sapiens) (UniProt P16473); test: qHTS assay to identify small molecule agonists of the thyroid stimulating hormone receptor (TSHR) signaling pathway (AID 1224843; calls by dose curve; further: nearly all actives have a fitted effect of over 45% in size; on activation: on the % scale 0 is the no-effect control and ±100 the full control effect); conditions: TSHR-HEK293 cells, cAMP HTRF, agonist mode, 30 min; activation: at 92.4 µM (top of the series) unless noted
# Summary of the method: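 HEK293 cells stably bearing the thyrotropin receptor were plated at 800 cells/well and challenged with compound (30 min, RT). Accumulated cAMP was quantified via cAMP-d2 competing for cryptate-tagged antibody.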
# [5] = target: Nuclear receptor subfamily 1 group I member 3 (Homo sapiens) (UniProt Q14994); test: qHTS assay to identify small molecule antagonists of the constitutive androstane receptor (CAR) signaling pathway (AID 1224838); conditions: HepG2-CYP2B6-hCAR luciferase, CITCO-stimulated, 24 h; series mostly up to 92.4 µM;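 further: HepG2 cells stably expressing hCAR with CYP2B6 luciferase reporter stimulated by CITCO; nearly all actives have a fitted effect of over 40% in size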
# Summary of the method: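 Quantitative HTS in double-stable HepG2-CYP2B6-hCAR cells. After 4 h plating, cells get compound (15 concentrations) and CITCO at 50 nM final, incubate 24 h at 37 C, then ONE-Glo luminescence is read.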
# [6] = target: Luciferin 4-monooxygenase (Photinus pyralis) (UniProt P08659); test: qHTS assay to identify small molecule inhibitors of firefly luciferase (AID 1224835); further: nearly all actives have a fitted effect of over 25% in size; conditions: purified P. pyralis luciferase, luminescence inhibition; series mostly up to 115 µM
# Summary of the method: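 Inhibition of purified Photinus luciferase is measured by luminescence. Substrate levels (D-luciferin, ATP) sit at their KM values. Each compound is tested in a concentration series.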
# [7] = qHTS assay to identify small molecule antagonists of the estrogen related receptor signaling pathway with the pleiotropic PPARgamma coactivator (PGC) from Tox21 10K library (AID 1224841; call rule not given here; further: actives are mostly falling curves and most rising ones were filed inactive; nearly all actives have a fitted effect of over 50% in size); conditions: PGC/ERR reporter cell line, ONE-Glo luciferase, 18 h; series mostly up to 92.4 µM
# Summary of the method: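 Compound exposure ran 18 hours at 37 C in PGC/ERR cells (2,000/well) that had first rested 6 hours in a 37 C/5% CO2 incubator. Luciferase activity was then detected with One-Glo after a 30-minute room-temperature step.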
# [8] = qHTS assay to identify small molecule agonists of the constitutive androstane receptor (CAR) signaling pathway - cell viability counter screen (AID 1224836); conditions: HepG2-CYP2B6-hCAR viability, CellTiter-Fluor, 23 h, PK11195 added to every well; series mostly up to 92.4 µM; further: nearly all actives have a fitted effect of over 45% in size
# Summary of the method: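 HepG2 cells stably carrying hCAR and a CYP2B6-2.2kb reporter; 15-concentration compounds plus PK11195 (final 0.75 uM), 23 hr at 37 C/5% CO2. Viability read by CellTiter-Fluor fluorescence.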
# [9] = qHTS assay to identify small molecule antagonists of the constitutive androstane receptor (CAR) signaling pathway - cell viability counter screen (AID 1224837); conditions: HepG2-CYP2B6-hCAR viability, CellTiter-Fluor, 23 h, co-treated with 50 nM CITCO; series mostly up to 92.4 µM; further: nearly all actives have a fitted effect of over 45% in size
# Summary of the method: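 Fluorescence from CellTiter-Fluor served as the viability signal. Human hepatoma HepG2 cells stably bearing hCAR and CYP2B6-2.2kb received compound plus CITCO (50 nM final) for 23 hr.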
# [10] = qHTS assay to identify small molecule antagonists of the estrogen related receptor signaling pathway with the pleiotropic PPARgamma coactivator (PGC) from Tox21 10K library - cell viability counter screen (AID 1224840; active means well fitted cell-killing curve with a large enough effect in the repeat runs, not every such curve was filed as active; inconclusive means weak or mixed curves, or effect the other way; inactive means no such curve, though single readings can be large or run the other way; further: nearly all actives have a fitted effect of over 40% in size); conditions: PGC/ERR reporter cells viability, CellTiter-Fluor, 17.5 h; series mostly up to 92.4 µM
# Summary of the method: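 Compounds in DMSO, alongside positive and negative controls, were pinned onto PGC/ERR cells (2,000 per well). Exposure lasted 17.5 hours at 37 C, followed by a 30-minute CellTiter-Fluor incubation and fluorescence reading.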
# [11] = qHTS assay to identify small molecule agonists of the hypoxia (HIF-1) signaling pathway - cell viability counter screen (AID 1224844; calls by dose curve; further: nearly all actives have a fitted effect of over 50% in size); conditions: HRE-bla ME-180 viability, CellTiter-Glo luminescence, 17 h; series mostly up to 76.8 µM
# Summary of the method: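 Luminescent ATP content (CellTiter-Glo, 30 min, room temperature) served as the viability measure in HRE-bla ME-180 cells exposed to compounds for 17 hrs in low-serum medium (0.5% dialyzed FBS).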
# Potency means the concentration at half of the fitted maximal effect; tags describe the fitted curve by direction and shape or compound fluorescence and quenching.
# UniProt P08659, sequence (P08659 whole entry, looked up): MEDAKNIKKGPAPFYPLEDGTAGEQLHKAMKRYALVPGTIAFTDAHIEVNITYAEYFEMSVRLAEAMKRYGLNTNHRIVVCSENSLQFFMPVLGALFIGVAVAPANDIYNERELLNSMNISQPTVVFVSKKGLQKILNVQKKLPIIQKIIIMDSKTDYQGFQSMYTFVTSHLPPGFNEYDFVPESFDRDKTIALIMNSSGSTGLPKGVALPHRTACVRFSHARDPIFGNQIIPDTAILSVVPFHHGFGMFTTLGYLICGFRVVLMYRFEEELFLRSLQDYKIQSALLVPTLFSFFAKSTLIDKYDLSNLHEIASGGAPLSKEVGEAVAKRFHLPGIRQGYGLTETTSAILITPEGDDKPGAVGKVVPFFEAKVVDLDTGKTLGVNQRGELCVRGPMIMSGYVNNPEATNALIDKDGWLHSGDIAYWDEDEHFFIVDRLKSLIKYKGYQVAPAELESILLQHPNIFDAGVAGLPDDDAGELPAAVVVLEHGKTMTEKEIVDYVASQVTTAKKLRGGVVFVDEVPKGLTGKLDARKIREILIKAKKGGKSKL
# UniProt Q14994, sequence (Q14994 whole entry, looked up): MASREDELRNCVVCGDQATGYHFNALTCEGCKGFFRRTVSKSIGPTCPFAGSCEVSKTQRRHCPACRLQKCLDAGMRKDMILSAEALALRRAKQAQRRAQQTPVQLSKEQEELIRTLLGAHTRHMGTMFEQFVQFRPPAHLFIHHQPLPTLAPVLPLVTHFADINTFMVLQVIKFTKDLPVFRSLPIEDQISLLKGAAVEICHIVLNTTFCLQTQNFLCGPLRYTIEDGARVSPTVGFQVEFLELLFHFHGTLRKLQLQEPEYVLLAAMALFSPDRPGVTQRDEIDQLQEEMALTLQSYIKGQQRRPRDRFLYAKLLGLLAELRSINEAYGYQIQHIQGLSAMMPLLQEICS
# UniProt P16473, sequence (P16473 whole entry, looked up): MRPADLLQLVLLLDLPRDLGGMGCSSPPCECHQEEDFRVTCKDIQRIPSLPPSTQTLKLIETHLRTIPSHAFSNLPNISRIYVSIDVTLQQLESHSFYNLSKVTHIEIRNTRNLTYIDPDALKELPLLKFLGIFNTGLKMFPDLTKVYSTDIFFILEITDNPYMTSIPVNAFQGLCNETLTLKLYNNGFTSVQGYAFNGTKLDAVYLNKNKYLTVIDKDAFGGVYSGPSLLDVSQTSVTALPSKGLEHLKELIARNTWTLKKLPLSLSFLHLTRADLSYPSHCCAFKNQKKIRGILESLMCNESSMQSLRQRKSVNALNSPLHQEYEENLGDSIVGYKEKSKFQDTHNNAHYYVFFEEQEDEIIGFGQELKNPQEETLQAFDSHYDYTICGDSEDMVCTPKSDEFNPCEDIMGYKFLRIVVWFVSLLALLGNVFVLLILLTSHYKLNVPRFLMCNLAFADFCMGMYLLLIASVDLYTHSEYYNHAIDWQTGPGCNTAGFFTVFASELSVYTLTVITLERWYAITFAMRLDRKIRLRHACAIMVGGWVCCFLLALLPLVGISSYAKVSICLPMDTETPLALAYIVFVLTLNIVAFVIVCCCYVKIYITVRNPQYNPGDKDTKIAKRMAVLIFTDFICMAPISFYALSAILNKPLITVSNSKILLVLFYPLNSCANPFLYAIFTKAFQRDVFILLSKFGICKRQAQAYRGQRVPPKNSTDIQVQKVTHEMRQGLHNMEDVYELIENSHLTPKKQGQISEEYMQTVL
smiles,measurement,setting,value
Oc1c(I)cc(I)c2cccnc12,Potency,[1],inconclusive: 33.5 µM [activator]
same,Potency,[2],"inconclusive: 33.5 µM [activator, single point]"
same,Potency,[3],inconclusive: 33.5 µM [activator]
CCOc1ccc2c(c1)C(C)=CC(C)(C)N2,Potency,[1],active: 54.2 µM and active: 61.1 µM
same,Potency,[2],active: 27.2 µM and active: 27.3 µM
same,activation,[4],inconclusive: 8.99%
Cc1ccc(CO)cc1,Potency,[1],inactive
same,Potency,[5],inactive
O=C(CC(=O)c1ccccc1)c1ccccc1,Potency,[1],active: 8.27 µM
same,Potency,[6],active: 6.06 µM
same,Potency,[7],inactive
same,Potency,[3],active: 29.3 µM
Nc1ccc(N=Nc2ccccc2)c(N)c1,Potency,[1],active: 0.238 µM
same,Potency,[6],active: 2.47 µM
same,Potency,[8],active: 30 µM
same,activation,[4],inconclusive: 9.52%
O=C(/C=C/c1ccccc1)OCCc1ccccc1,Potency,[1],active: 2.73 µM
same,Potency,[2],"inconclusive: 24.3 µM [activator, partial curve]"
same,activation,[4],inconclusive: -15.3%
CC(=O)c1cnccn1,activation,[1],inconclusive: 3.22% [phenotype inactive] [at 94.8 µM]
same,Potency,[5],inactive
same,Potency,[4],inactive
Nc1ccc(Oc2ccc(N)c(N)c2)cc1,Potency,[1],active: 1.72 µM
same,Potency,[9],inconclusive: 48.6 µM [cytotoxic]
same,Potency,[10],active: 48.6 µM
same,activation,[4],inconclusive: 10.4%
Cc1c(OCC(F)(F)F)ccnc1CS(=O)c1nc2ccccc2[nH]1 (stereo unspecified),Potency,[1],active: 34.4 µM and active: 26.6 µM
same,Potency,[2],active: 30.6 µM and active: 11.9 µM
same,Potency,[10],"inconclusive: 68.6 µM [cytotoxic, partial curve, poor fit]"
same,Potency,[3],"inconclusive: 15.4 µM [activator, partial curve] and inconclusive: 10.6 µM [activator, partial curve, poor fit]"
CC1COc2ccccc2N1 (stereo unspecified),activation,[1],inconclusive: 5.7% [phenotype inactive]
same,Potency,[6],"inconclusive: 100 µM [inhibitor, partial curve]"
C1CCC(C(CC2CCCCN2)C2CCCCC2)CC1 (stereo unspecified),Potency,[1],"inconclusive: 26.6 µM [inhibitor, partial curve]"
same,Potency,[9],"inconclusive: 33.5 µM [cytotoxic, single point]"
same,Potency,[5],"inconclusive: 33.5 µM [inhibitor, single point]"
same,Potency,[7],"inconclusive: 33.5 µM [falling, single point]"
same,Potency,[4],"inconclusive: 10.6 µM [activator, full curve]"
same,Potency,[11],"inconclusive: 26.8 µM [cytotoxic, single point]"
CC(C=O)Cc1ccc(C(C)(C)C)cc1 (stereo unspecified),Potency,[1],inactive
same,Potency,[2],inactive
same,Potency,[7],"inconclusive: 6.11 µM [falling, full curve, poor fit]"
O=C(O)O,Potency,[1],"inconclusive: 4.7 µM [inhibitor, single point]"
same,Potency,[6],"inconclusive: 3.44 µM [inhibitor, single point]"
same,Potency,[5],"inconclusive: 2.64 µM [inhibitor, single point]"
same,Potency,[3],active: 0.264 µM
same,Potency,[11],"inconclusive: 2.37 µM [cytotoxic, partial curve, poor fit]"
CC(=O)Oc1ccc(C(=C2CCCCC2)c2ccc(OC(C)=O)cc2)cc1,Potency,[1],"inconclusive: 33.5 µM [inhibitor, single point]"
same,Potency,[2],inconclusive: 10.6 µM [activator]
same,Potency,[4],inactive
CN(C)c1ccc(N=NS(=O)(=O)O)cc1,Potency,[1],inconclusive: 45.7 µM [activator]
same,Potency,[8],inconclusive: 51.2 µM [cytotoxic]
same,Potency,[9],"inconclusive: 22.9 µM [cytotoxic, full curve]"
same,Potency,[11],"inconclusive: 54.9 µM [rising, partial curve, poor fit]"
CNC(=S)NN,Potency,[1],"inconclusive: 30.6 µM [inhibitor, full curve]"
same,Potency,[8],active: 43.3 µM
same,Potency,[11],"inconclusive: 54.9 µM [rising, single point]"
CCCCCCC(=O)c1ccccc1,Potency,[1],active: 54.5 µM
same,Potency,[2],"inconclusive: 38.6 µM [activator, partial curve]"
C=CC(=C)CCCC(C)(C)OC(C)=O,Potency,[1],inactive
same,Potency,[5],inactive
OC1CCCCC1,Potency,[1],inactive
same,Potency,[2],inactive
same,activation,[4],inconclusive: 1.13% and inconclusive: 3.59%
CN1CCCN(C(c2ccccc2)c2ccc(Cl)cc2)CC1 (stereo unspecified),Potency,[1],inconclusive: 29.8 µM [inhibitor]
same,Potency,[5],"inconclusive: 33.5 µM [inhibitor, single point]"
same,Potency,[2],inactive
